Hit rate of the full screen: of about 420,000 compounds, about 50,000 (12%) were called active. The shares of active, inactive and inconclusive entries below differ from those in the screen. Calls follow the shape of the dose curve; as a rule, active = well fitted inhibition curve with a large enough effect; inconclusive = small, poorly fitted or top-dose-only effect; inactive = flat fitted curve, though single readings scatter. Potencies of inconclusive entries are left out as doubtful fits.
Test: qHTS for Inhibitors of human tyrosyl-DNA phosphodiesterase 1 (TDP1): qHTS in cells in presence of CPT; also: nearly all actives have a fitted effect of over 55% in size
Details: chicken DT40 Tdp1-/-;hTDP1 cells + 20 nM CPT, ATP luminescence, 48 h; series mostly up to 46.2 µM
Summary of the method: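 Cell growth measured by CellTiter-Glo luminescence after a minimum 48 h, 37 C compound exposure with 20 nM CPT in Tdp1-knockout DT40 cells stably expressing hTDP1, seeded 400/well; qHTS titration format.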
Potency is read from the fitted curve at half-maximal effect; tags tell the direction and shape of the fitted curve.

| SMILES | Potency |
| --- | --- |
| Cc1ccccc1C(=O)N[C@H](C(=O)Nc1ccc(Cl)c(Cl)c1)C(C)C | inactive |
| CCOC(=O)C(Cc1ccnc2ccccc12)=NO | inconclusive [inhibitor, single point] |
| O=C(Nc1ncc(Br)s1)C1CCCN1S(=O)(=O)c1cccc2cccnc12 (configuration not stated) | inconclusive [inhibitor, single point] |
| COc1ccc(C(=O)Nc2ccc(OCc3ccccc3)cc2)cc1[N+](=O)[O-] | inconclusive [inhibitor, single point] |
| Cn1nc(C(F)(F)F)c(C(=O)Nc2ccc(F)cc2F)c1Sc1cccc(Cl)c1 | inconclusive [inhibitor, single point] |
| COC(=O)c1cn(-c2ccccc2)nc1-c1ccc(OC)cc1 | inactive |
| COc1ccc(C2CC(c3ccccc3)=NN2C(=O)COC(=O)c2cccnc2Cl)cc1 (configuration not stated) | inconclusive [inhibitor, single point] |
| O=c1oc(/C=C/c2ccc([N+](=O)[O-])s2)nc2ccccc12 | inconclusive [inhibitor, single point] |
| Cc1ccc(CCNC(=O)CN2C(=O)COc3ccc(S(=O)(=O)N4CCCCC4)cc32)cc1 | inconclusive [inhibitor, single point] |
| CCc1nnc(NC(=O)[C@@H](NS(=O)(=O)c2ccc3c(c2)OCCO3)C(C)C)s1 | inactive |
| COc1cc(NC(=O)Cn2ccsc2=N)cc(OC)c1 | inconclusive [inhibitor, single point] |
| COc1ccc(N2CCN(C(=O)CCS(=O)(=O)c3ccc4c(c3)NC(=O)CO4)CC2)cc1 | inconclusive [inhibitor, single point] |
| O=C(O)C(Cc1c[nH]c2ccccc12)N1C(=O)C2C3c4ccccc4C(c4ccccc43)[C@@H]2C1=O (some centres not stated) | inactive |
| Cc1cc(C#N)c2ccccc2n1 | inactive |
| O=C(NNc1nc(-c2ccccc2)cs1)c1ccco1 | inconclusive [inhibitor, single point] |
| CN(C)C(CNC(=O)c1sc2ccccc2c1Cl)c1ccco1 (configuration not stated) | inactive |
| COc1ccc(CNCC(O)(c2ccc(Cl)cc2)c2ccc(Cl)cc2)cc1OC | active: 14.6 µM |
| COc1cncc(C#Cc2ccccn2)c1 | inactive |
| O=C(CC1SC(N2CCOCC2)=NC1=O)Nc1ccccc1Cl (configuration not stated) | inactive |
| O=C(CSc1ccc2ccccc2n1)NCCC1=CCCCC1 | inconclusive [inhibitor, single point] |
| Cc1nc([N+](=O)[O-])cn1CC(=O)Nc1ccc(F)c(Cl)c1 | inactive |
| C/C(=N\NC(=O)c1cccc(S(=O)(=O)N2CCCC2)c1)c1cccs1 | inconclusive [inhibitor, partial curve] |
| CC(C)(C)OC(=O)N1CCC(c2c(C(=O)Nc3ccc4c(c3)OCCO4)cnn2-c2ccc(F)cc2)CC1 | inconclusive [inhibitor, single point] |
| COc1ccc(OC)c(NCc2cccn2-c2nnc(N3CCC(C)CC3)s2)c1 | active: 2.91 µM |

| SMILES | Potency |
| --- | --- |
| Cc1ccnc(NCc2cc(C)ccc2O)c1 | inconclusive [inhibitor, single point] |
| CC(C)Cn1c(-c2csc3c2CCCC3)n[nH]c1=S | inactive |
| CCN(c1ccc(C)cc1C)S(=O)(=O)c1nnc(NC(=O)C(C)(C)C)s1 | inconclusive [inhibitor, single point] |
| O=C(O)C(Cc1ccccc1)n1c(=S)[nH]c2ccccc2c1=O (configuration not stated) | inactive |
| C=C1C(=O)C23C(O)C1CCC2[C@]12COC3(O)C(O)C1C(C)(C)CC[C@H]2O (some centres not stated) | active: 3.26 µM |
| COc1ccc(C2C(=O)N(C3CCCCCC3)CC(=O)N2CCc2ccccc2)cc1 (configuration not stated) | inconclusive [inhibitor, single point] |
| CCOc1ccc(S(=O)(=O)Nc2ccc(C(=O)N/N=C/c3c(C)nn(-c4ccccc4)c3N3CCCC3)cc2)cc1 | inconclusive [inhibitor, single point] |
| COc1cccc(NC(=O)C(C)Sc2nnc(C3CC3)n2C2CC2)c1 (configuration not stated) | inactive |
| O=C(/C=C/c1ccc([N+](=O)[O-])cc1)Nc1cccc(C(=O)Nc2ccccc2C(=O)O)c1 | inconclusive [inhibitor, single point] |
| O=C(CN1CCN(Cc2ccc3c(c2)OCO3)CC1)Nc1cc(S(=O)(=O)N2CCCC2)ccc1Cl | inconclusive [inhibitor, single point] |
| CC(C)(C)c1ccc(C(=O)Nc2nnc(C3=COCCO3)o2)cc1 | active: 13 µM |
| Cc1cccc(NC(=O)c2nc[nH]c2C(=O)NC2CCN(C(=O)OC(C)(C)C)CC2)c1 | inactive |
| O=C(NCCc1ccccc1)c1ccc2c(c1)N(Cc1ccccc1)C(=O)c1ccccc1S2=O (configuration not stated) | active: 29.1 µM |
| FC(F)(F)c1ccccc1NC(=S)N1CCN(Cc2ccc3c(c2)OCO3)CC1 | inconclusive [inhibitor, single point] |
| CCCc1cc(=O)[nH]c(SCC(=O)Nc2ccc(OCc3ccccc3)cc2)n1 | inconclusive [inhibitor, partial curve] |
| COC(=O)N1CCC2(CC1)CCN(c1ccncc1)CC2 | active: 7.31 µM |
| CCS(=O)(=O)c1ccc2oc(Nc3ccc(OC)c(OC)c3)nc2c1 | inactive |
| O=C(Cc1ccccc1)N/N=C/c1ccc([N+](=O)[O-])s1 | active: 20.6 µM |
| COc1cccc(C(=O)NCCNC(=O)c2ccc(C)nc2)c1 | inactive |
| CCc1nc2c(OCc3ccc(C(=O)OC)cc3)cccn2c1N(C)C(=O)C(C)C | active: 20.6 µM |
| O=C(CNC(=O)c1ccco1)NCc1ccc2c(c1)OCO2 | inactive |
| Fc1cccc(Cc2c(-c3ccc(Cl)cc3)nc3c(Cl)cc(C(F)(F)F)cn23)c1 | inactive |
| Cc1ccc(S(=O)(=O)N2CCN(c3ccc([N+](=O)[O-])c4cccnc34)CC2)cc1 | inconclusive [inhibitor, single point] |
| Cc1ccc(C)c(NC(=O)CCCN2C(=O)COc3ccc(C)cc32)c1 | inconclusive [inhibitor, partial curve, poor fit] |

| SMILES | Potency |
| --- | --- |
| CCOC(=O)c1c(-c2ccc(F)cc2)csc1NC(=O)CCN1CCOCC1 | inconclusive [inhibitor, single point] |
| CN(C)c1ccc(CNC(=O)c2cc3ccccn3n2)cc1 | inactive |
| CSc1ccc(C(=O)C2CCCN(C(=O)CCCn3cncn3)C2)cc1 (configuration not stated) | inconclusive [inhibitor, single point] |
| COc1cc(OC)c(OC)cc1/C=N/NC(=O)c1ccc2nc[nH]c2c1 | inactive |
| Cc1oc(-c2ccc(Cl)cc2)nc1CS(=O)CC(=O)NCCCN1CCN(Cc2ccccc2)CC1 (configuration not stated) | active: 14.6 µM |
| O=S(=O)(c1ccccc1)N1CCC2(CC1)CN(c1ccccn1)C2 | inconclusive [inhibitor, single point] |
| CC(C)(C)OC(=O)N1CCC(c2c(C(=O)Nc3cccc(C(F)(F)F)c3)cnn2-c2ccc(F)cc2F)CC1 | inconclusive [inhibitor, single point] |
| COc1ccc2c(CCNC(=O)/C=C/c3ccc(OC)c(OC)c3)c[nH]c2c1 | inconclusive [inhibitor, single point] |
| CN(C)CCN1C(=O)C(=O)/C(=C(/O)c2ccc(S(=O)(=O)N3CCOCC3)cc2)C1c1ccc(F)cc1 (configuration not stated) | inactive |
| NC(=O)c1c(NC(=O)c2ccncc2)sc2c1CCCC2 | inconclusive [inhibitor, partial curve] |
| C=Cn1nc(C)c2ccccc2c1=O | inactive |
| CO/N=C(\Cn1ncc(N2CCCC2)c(Br)c1=O)c1ccc(Cl)cc1 | inconclusive [inhibitor, single point] |
| COc1ccccc1C(=O)NS(=O)(=O)c1ccc(C)cc1 | inactive |
| O=C(NC1CC1)c1nc2c(nnn2Cc2ccccc2Cl)c(=O)[nH]1 | inconclusive [inhibitor, single point] |
| CCOC(=O)c1ccc(N2C(=O)CC(N(C)CCc3ccc(OC)c(OC)c3)C2=O)cc1 (configuration not stated) | active: 16.4 µM |
| Cc1ccc(-c2nn3cnnc3c3ccccc23)cc1 | inconclusive [inhibitor, partial curve, poor fit] |
| On1c(-c2ccccc2)nc2ncccc21 | inconclusive [inhibitor, single point] |
| CCc1nc2c(OCC(=O)C(C)(C)C)cccn2c1N(C)C(=O)c1ccccc1F | inactive |
| Cc1ccc(S(=O)(=O)c2cc(O)ccc2O)cc1C | inconclusive [inhibitor, partial curve, poor fit] |
| CCn1c(SCC(=O)N2c3ccccc3CCc3ccccc32)nc2c1c(=O)n(C)c(=O)n2C | inconclusive [inhibitor, single point] |
| CC(=O)N/N=C/c1cc([N+](=O)[O-])ccc1OCCOc1ccccc1 | inconclusive [inhibitor, single point] |
| O=C(Nc1c(F)cc(F)cc1Br)c1cc(S(=O)(=O)N2CCN(c3ccccn3)CC2)ccc1F | inconclusive [inhibitor, single point] |
| COc1ccc(S(=O)(=O)Nc2ccc3c(c2)N(C(C)=O)CCC3)cc1OC | inconclusive [inhibitor, single point] |
| CC1CCN(S(=O)(=O)c2ccc3ncn(CC(=O)Nc4ccccc4C(F)(F)F)c(=O)c3c2)CC1 | active: 20.6 µM |
